# Laboratory results taken from ChEMBL document CHEMBL5308541, “MAIP: An Open-Source Tool to Enrich High-Throughput Screening Output and Identify Novel, Druglike Molecules with Antimalarial Activity” (ACS Med Chem Lett, 2023).
# The whole screen tested about 150,000 compounds, of which about 540 (0.36%) showed an effect of 50% or more. Some of the results follow.
# Test system: Plasmodium falciparum
# Assay: Primary screen in NF54 nanoGlo assay, in single point, at 2uM, 72h; a lower Z score goes with more inhibition
# Format: functional, Erythrocyte
# Details: timepoint 72 hour
SMILES,% Inhibition [%],Z score
Cc1n[nH]c2ncc(NCc3ccc(Oc4cnccn4)cc3)cc12,-8,1.32
O=C(Nc1ccc(N2CCC(NCc3c[nH]nc3-c3ccc(Cl)cc3)CC2)cc1)C1CCCC1,-3,0.56
CCCC(=O)NC1COCC1Cc1ccncc1 (stereo unspecified),82,-16.24
CN(C(=O)c1cc(-c2cccnc2)on1)c1cc(-c2ccccc2)[nH]n1,-5,0.78
COCCN(Cc1ccncc1)C(=O)[C@H](C)N1CCN(C)CC1,-15,2.64
CCN(CCNc1nccc(-c2ccccn2)n1)c1cccc(C)c1,4,-0.7
CC(C)c1cc(NC[C@H]2CCCCCN2)nc(N)n1,5,-1.02
Fc1ccc(C(CCCN2CCN3CCCC[C@H]3C2)c2ccc(F)cc2)cc1,-19,3.4
COCc1cc(OCC2(CC#N)CC2)c2cc(F)ccc2n1,-1,0.2
COc1ccc2c(c1)C=C(CN1CC[C@H](Cc3cccc(CO)c3)C1)CO2,-1,0.24
Cc1nnc(NCC2CCN(C3CCN(C)CC3)CC2)s1,-8,1.18
O=c1c2c(Cl)cccc2ncn1CC1CCNCC1O (stereo unspecified),-1,0.22
CC1CCN(CCc2cccc(NC(=O)c3ccccc3-c3cncnc3)c2)CC1,-3,0.58
Cc1cc(NCCS(C)(=O)=O)c2c(C)noc2n1,-1,0.11
COc1cc(-c2onc(N(C)C)c2C(=O)N2CC[C@H](N3CCN(C)CC3)C2)ccc1F,-8,1.68
OCC1CCN(c2ncccc2NCc2cccc3[nH]ccc23)CC1,-2,0.38
O=C(NCc1cc2ccc(F)cc2[nH]c1=O)[C@@H]1CC2(CCNCC2)CN1,-2,0.38
Fc1ccccc1N1CC[C@H](CNc2nccc(-c3ccncc3)n2)C1,-4,0.71
O=C(Nc1cccc2cn[nH]c12)N1CCN(CCN2CCOCC2)CC1,-1,0.24
O=C(NCCN1CCNCC1)c1cccc(-c2cnc3ccccc3n2)c1,5,-0.9
c1cc2c(NCc3ccc(-c4ccoc4)cc3)ncnc2cn1,2,-0.31

SMILES,% Inhibition [%],Z score
COc1cncc(-c2cccc(C(=O)N[C@@H]3C[C@@H](CO)N(C)C3)c2)c1,6,-0.99
CCN(Cc1nc(C(C)C)no1)C(=O)Cc1nc2[nH]c3c(c(=O)n2n1)CCCC3,-13,2.71
Nc1nccc(N2CCC(CNC(=O)c3ccc(-n4ccnc4)cc3)CC2)n1,-5,0.91
C[C@@H]1[C@H](N2CCOCC2)CCN1Cc1ccc(Cl)c2cccnc12,-2,0.25
CC(C(=O)Nc1ccc2ccccc2c1)N1CCCC(CN2CCN(C)CC2)C1 (stereo unspecified),2,-0.43
CCCOC(=O)C(C)(C)NC(=O)OC,6,-1.22
COc1cccc2[nH]cc(CC(=O)Nc3cc(N4CCN(C)CC4)ccn3)c12,-2,0.37
Cc1nc(N2CCCC(NC(C)C)C2)cc(N2CCCC(NC(C)C)C2)n1 (stereo unspecified),3,-0.53
CN1CCN(C(=O)CCNC(=O)c2ccc(F)cc2)C2(CCCCC2)C1,-5,0.73
Cc1cc(C#N)ccc1NC1CCC(OC(=O)[C@@H]2CCCN2C(=O)C(F)(F)F)CC1 (stereo partly specified),-3,0.52
OC1CCN(c2ccnc(NCC[C@H](c3ccc(F)cc3)c3ccco3)n2)CC1,-1,0.14
CN1CCCN(C(=O)c2ccc(-c3ccc(N)nc3)cc2)CC12CCNCC2,-7,1.07
Clc1ccc2cc(CNCCCN3CCOCC3)c(OCCOc3ccccc3)nc2c1,-13,2.31
Cc1cc2cc(C(=O)N(C)Cc3c(C)nc4ccccn34)ccc2o1,-12,2.03
Fc1cnc(NCCOc2cccc3cccnc23)nc1N1CCOCC1,-13,2.73
Cc1nccn1-c1cncc(NC[C@H](C)CN2CCCC2)n1,-5,1.14
OC1CCN(CCCNCc2cc3ccccc3nc2N2CCCCC2)CC1,8,-1.45
COCC(C)(C)N(Cc1ccccc1)C(=O)CCCNC(=O)OC,-1,0.22
CC(C)COc1cccc(CN2CC[C@H](Nc3ncccn3)C2)c1,-8,1.24
Cn1ncc2c(N)nc(N3CC[C@H](Oc4cccc(F)c4)C3)nc21,2,-0.41
Cc1nc2c(c(NCC3CCN(C4CCN(C)CC4)CC3)n1)CCNC2,-10,1.9

SMILES,% Inhibition [%],Z score
OCc1cc2c(cc1-c1cnn(C3CCNCC3)c1)OCCO2,1,-0.12
c1nc(NC[C@H]2CNCCCO2)cc(N2CCCC2)n1,-7,1.16
CS(=O)(=O)c1ccc(-c2nnc(NCc3cccc(OC4CCCC4)c3)o2)cc1,-21,3.57
Clc1ccc(N2CC[C@H](Nc3cc(N4CCOCC4)ncn3)C2)cc1,-6,1.22
CN(C)Cc1cccc(CCNCc2csc(-c3ccc(C(F)(F)F)cc3)n2)c1,51,-11.09
CCOC(=O)N1CCC(Nc2c(NCCN3CCN(Cc4ccccc4)CC3)c(=O)c2=O)CC1,-11,1.87
CN1CCN(C2(CNc3ncnc4c3CCNCC4)CCCC2)CC1,3,-0.44
CC(C(=O)Nc1cccc(F)c1)N1CCN(CC2CCCN(C(=O)OC(C)(C)C)C2)CC1 (stereo unspecified),-7,1.41
CCN1CCN(C(=O)C2CCN(c3nc4ccc(-c5ccsc5)nc4s3)CC2)CC1,-2,0.4
Cn1cc([C@H]2[C@H](CNc3nc(N)c4ccccc4n3)CC(=O)N2C(C)(C)C)cn1,-9,2.02
Cc1nsc(NCC(C)(C)NC(=O)OC(C)(C)C)n1,-7,1.37
Cc1cccc(-c2[nH]ncc2CN[C@H]2CCCN(c3cc(N4CCOCC4)ncn3)C2)c1,-1,0.09
CC(C)/C=C1/CCCc2c1nc1ccccc1c2O,0,0.04
CC1(C)CC(NCc2cc(O)c3cc(C(N)=O)ccc3n2)CC(C)(C)N1,-2,0.3
NC(=O)CNC(=O)c1ccc2c(c1)NC(=O)NC2,-6,1.32
C[C@H]1CCCCN1C1CN(C(=O)c2cnc(Nc3ccccc3)nc2)C1,-1,0.21
Cc1ccc2c(-c3ccccc3CN3CCNCC3)cccc2n1,36,-7.14
CC1CCC2c3c(c4ccccc4n3Cc3ccccc3)CCN2C1 (stereo unspecified),-10,1.64
COc1ccc(N(C)S(=O)(=O)CC2CN(S(C)(=O)=O)C2)cn1,1,-0.22
CN1CCN(Cc2ccc(C(=O)N3CCC(N4CCC(O)CC4)CC3)o2)CC1,-13,2.26
N[C@H]1CCCN(Cc2ccc(OCCN3CCOCC3)cc2)CC1,2,-0.32

SMILES,% Inhibition [%],Z score
Cc1cc(C)n(-c2ccc(CCC(=O)N3CCN(c4nsc5ccccc45)CC3)cc2)n1,3,-0.58
CN1CCCN(CC(=O)N2CCC(Oc3ccncc3)CC2)CC1,-2,0.39
OC1(CCNc2ncnc3[nH]ncc23)CCN(c2ccccc2)CC1,-10,2.07
Cc1noc(-c2ccnc(NC[C@H]3CCN(CC(F)(F)F)C3)c2)n1,2,-0.25
CCc1nc2n(n1)CC(NC(=O)N1CCOC(C)(CC)C1)CC2 (stereo unspecified),-2,0.48
CN1CCC(N2CCC(CN(CCCn3cccn3)Cc3ccncc3)CC2)CC1,-6,0.97
CCc1ccc2ncnc(NCCCN3CCN(CCO)CC3)c2c1,65,-12.99
Cc1[nH]c2c(F)cc(F)cc2c1CCNc1cc([C@H]2C[C@@H](N)C2)nc(N)n1,18,-3.29
O=C(Nc1nn[nH]n1)c1cnc2ccc(OC(F)(F)F)cc2c1O,-1,0.26
CCc1nc2c(N(C)Cc3cccc4ncccc34)ncnc2o1,-10,1.66
COc1ccccc1-c1nc2cc(Cl)ccc2cc1CN1CCC[C@@H]1CO,-1,0.26
C[C@@H](c1nc(-c2cccs2)no1)N1CCN(Cc2ccc3c[nH]nc3c2)CC1,1,-0.21
CCN1CCN(C[C@@H](C)CNc2c(C#N)cnc3ccccc23)CC1,6,-1.22
O[C@H]1CCCN(c2ccnc(NCc3c[nH]nc3-c3cccs3)n2)C1,7,-1.02
O=C(NCc1ccc(OCCN2CCCC2)cc1)c1ccncc1F,-6,1.05
Cn1cncc1[C@@H]1CNC[C@H]1CNC(=O)c1ccccc1NC1CCCCC1,75,-14.83
C[C@@H](C(=O)Nc1ccc2[nH]c(-c3ccco3)nc2c1)S(C)(=O)=O,-6,1.16
Nc1cc(N2CCC(N3CCc4ccccc4C3)CC2)nc(N2CCOCC2)n1,5,-0.91
Clc1cc(Nc2c3ccccc3nc3ccccc23)ccc1Oc1ccc2ccccc2c1Cl,-10,1.68
CN1CCN(C2(CNCc3cn(C)nc3-c3ccccc3F)CCCCC2)CC1,8,-1.63
